The other results are listed elsewhere or left out.

The target of the experiment is T1, OsWOX13 (Oryza sativa, UniProt Q5QMM3 1-267).
T1 sequence: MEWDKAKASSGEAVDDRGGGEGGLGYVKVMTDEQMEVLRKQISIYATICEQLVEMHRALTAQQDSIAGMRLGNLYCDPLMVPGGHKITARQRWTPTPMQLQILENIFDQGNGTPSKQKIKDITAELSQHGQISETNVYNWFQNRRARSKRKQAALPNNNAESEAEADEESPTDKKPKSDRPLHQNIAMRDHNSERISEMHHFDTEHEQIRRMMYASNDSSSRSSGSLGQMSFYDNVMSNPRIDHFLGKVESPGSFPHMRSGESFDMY
Nature of the experiment: protein-binding microarray (RPBM); PBS, 2% BSA, 51.3 ng/ul salmon testes DNA, 50 uM zinc acetate, 200 nM TF, 25 C, 1 h; high values mean tight binding. The settings on record: protein: recombinant; tags: N-terminal polyhistidine and DsRed monomer fusion (pET32a); label: CyDye5-dUTP incorporated in the synthesized complementary strand; 3' TTTTT single-stranded linker to array surface; dsDNA, one strand shown. The procedure, abridged: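 An Axon 4000B scanner gave the binding signal as per-feature fluorescence intensity in arbitrary units. This followed washing of a custom Agilent array that had been incubated for 1 h at 25 °C with 200 nM protein in PBS, 2% BSA, salmon testes DNA and 50 µM zinc acetate. The proteins were transcription factors fused at the N-terminus to polyhistidine and DsRed, expressed in E. coli BL21-CodonPlus and purified on Ni–NTA.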
“CCCTAAATTCATGAGATTGCAGCTGTCTGTAAGTTCTAATCGGAGTCACCTAGTGCAG”: the binding signal was 5540 fluorescence intensity (a.u.).

For the sequence “CGAATTAAACACAGCCATAATGAGTTTAAATGTTAGCACTCGGAGTCACCTAGTGCAG”, the binding signal is 3380 fluorescence intensity (a.u.).

For “AAATAAACAGTCCGTAAACCGTTTGGACCGTCCGATGAGCCGGAGTCACCTAGTGCAG”, the binding signal was 3680 fluorescence intensity (a.u.).

For the sequence “ATTGATCGATTGTATGTAGGTTCATATTGCTTAGATGGTGCGGAGTCACCTAGTGCAG”, the binding signal was 4300 fluorescence intensity (a.u.).

For the sequence “AAACCACCTAACAATTGATAGATGCTTAATTTAGCCAAACCGGAGTCACCTAGTGCAG”, the binding signal was 12900 fluorescence intensity (a.u.).

As to “TAAAATTAAATTTACAAGGGTTAATTCGCGAGTAATAACGCGGAGTCACCTAGTGCAG”, the binding signal is 12300 fluorescence intensity (a.u.).

As for “ATAAATTGGACATCCTGGACATGCTCTTTCTTCAGACATCCGGAGTCACCTAGTGCAG”, the binding signal is 24100 fluorescence intensity (a.u.).

As to “GTGAAGAGCAAATCAATTGATATATGAATCAGCAGGAGGCCGGAGTCACCTAGTGCAG”, the binding signal was 8780 fluorescence intensity (a.u.).

As to “TTGATGGAGTAAATTTCCCCTACTCTACGTGCGTACAAGTCGGAGTCACCTAGTGCAG”, the binding signal is 8740 fluorescence intensity (a.u.).

Regarding “TTATTCTCTTGTGTGATTTGTGATTGATGATCTGTCAACACGGAGTCACCTAGTGCAG”, the binding signal is 37000 fluorescence intensity (a.u.).

On to “AGTGACCTCAATTGATCATTCCCTCATCCTTTAGTCAAGCCGGAGTCACCTAGTGCAG”, for which the binding signal is 3990 fluorescence intensity (a.u.).

For “ACTAGGATGATGTGAATAAGTAATTGAGTAGGCTAAAGTTCGGAGTCACCTAGTGCAG”, the binding signal was 5220 fluorescence intensity (a.u.).

Turning to “GAAAACGCCAAAATACAATAATTAGATTTTCCACAGACACCGGAGTCACCTAGTGCAG”, the binding signal is 3580 fluorescence intensity (a.u.).

In the case of “TTCTGCAAATCCAATCAATCGCGGGTTAATATCCCAGCACCGGAGTCACCTAGTGCAG”, the binding signal is 17800 fluorescence intensity (a.u.).

Regarding “TGCTAAATTGCCAGTAAAGTTTATTTTGGCTACAATCTGACGGAGTCACCTAGTGCAG”, the binding signal was 8930 fluorescence intensity (a.u.).

Consider “CAGATCAATTTATCGAGATTGATCAAAAGCAAGATGATGCCGGAGTCACCTAGTGCAG”, for which the binding signal was 35000 fluorescence intensity (a.u.).

“TTTATACGAAAATCAATAATTATAGCAGATATCCACAAGGCGGAGTCACCTAGTGCAG”: the binding signal was 5700 fluorescence intensity (a.u.).

Consider “GCCAATCACTGTACTTCTATTACAATGCACATGCATGCGCCGGAGTCACCTAGTGCAG”, for which the binding signal was 10000 fluorescence intensity (a.u.).

As for “TTTGCAATAATTAATACTAATTAATCATATGCGGTTTCTTCGGAGTCACCTAGTGCAG”, the binding signal is 31100 fluorescence intensity (a.u.).

As for “AATAATAAATTTGATTGAATATATTACATAGCTAAAGTTTCGGAGTCACCTAGTGCAG”, the binding signal was 31800 fluorescence intensity (a.u.).

Regarding “TTTGGGGCTGAGAGATGAATGGATAATGGCCGCGGAGTTGCGGAGTCACCTAGTGCAG”, the binding signal was 3770 fluorescence intensity (a.u.).

In the case of “GTTCTGACAAAATTTTAGTATCCAACCAAACAGCCCCAATCGGAGTCACCTAGTGCAG”, the binding signal is 4090 fluorescence intensity (a.u.).

“TTGTTGTTATTTAATAAATTAGGAGATCAAATATGTTATTCGGAGTCACCTAGTGCAG”: the binding signal was 3300 fluorescence intensity (a.u.).

On to “TTAAAATTAAACTTTTGCAGTCTTTCTAATTTGCCTCCTCCGGAGTCACCTAGTGCAG”, for which the binding signal was 5220 fluorescence intensity (a.u.).

In the case of “TCTGATTAGTACTAGATATGAGTAACACGCAGATAACATGCGGAGTCACCTAGTGCAG”, the binding signal was 44200 fluorescence intensity (a.u.).

Consider “CTGATGATCAAAATTGCAATCCTGAGTCCTGAACAATGTGCGGAGTCACCTAGTGCAG”, for which the binding signal is 14600 fluorescence intensity (a.u.).

“TGTATGCATAATTTATAAATTTTCACTCTAACACCATGTCCGGAGTCACCTAGTGCAG”: the binding signal is 9330 fluorescence intensity (a.u.).

Turning to “AAACTACATTAATTTACATTGATTTTAGGAAATGAGGATCCGGAGTCACCTAGTGCAG”, the binding signal is 23700 fluorescence intensity (a.u.).

As for “AGAGCTGCTAATTAATTATTTCACATGGATGCATACTTATCGGAGTCACCTAGTGCAG”, the binding signal is 20500 fluorescence intensity (a.u.).

Regarding “TAACAAACTATTCCTAATTAATAGATAAACTGCCATGCCGCGGAGTCACCTAGTGCAG”, the binding signal was 8390 fluorescence intensity (a.u.).

Take “ACTTAATTTAAGTGGCTCCGACTTGACGTACGACTGATCTCGGAGTCACCTAGTGCAG”: the binding signal was 13200 fluorescence intensity (a.u.).

Take “CCCAATTATCTGGATGAAACATGCATGCGCACAATCTAGACGGAGTCACCTAGTGCAG”: the binding signal is 3360 fluorescence intensity (a.u.).

“CTATCTTAATCTCATCATCAATTCCCTCGTGTAAACTCCCCGGAGTCACCTAGTGCAG”: the binding signal is 3170 fluorescence intensity (a.u.).

As for “GACTGACGACAAAATTTGTTACAGATATCCATATCTTGATCGGAGTCACCTAGTGCAG”, the binding signal is 5930 fluorescence intensity (a.u.).

On to “TTCTATAAATCAATGACAAATTTATCTGGTTCAATCAAAGCGGAGTCACCTAGTGCAG”, for which the binding signal was 14100 fluorescence intensity (a.u.).

Turning to “GGAAATATGTTAATTAAAATAATGCAACCCTAATCAGCAACGGAGTCACCTAGTGCAG”, the binding signal was 10500 fluorescence intensity (a.u.).

Regarding “GCCATGTAATTGTTACCCACCCGTGTCCATTTGCAATTGACGGAGTCACCTAGTGCAG”, the binding signal was 9450 fluorescence intensity (a.u.).

Turning to “TACAATTAATTAGCTCGACTAATTAATAACCAAGTGATGGCGGAGTCACCTAGTGCAG”, the binding signal was 37800 fluorescence intensity (a.u.).

As to “TTATAATTGTAAATTTTACAAATTAGTCCTCACCTGTTCTCGGAGTCACCTAGTGCAG”, the binding signal was 53400 fluorescence intensity (a.u.).

Regarding “AAATAATTTATAGGTAAAACTTTATATAAATGGTTTTAGTCGGAGTCACCTAGTGCAG”, the binding signal is 39400 fluorescence intensity (a.u.).

For the sequence “ACCTTCGACTATCAATAATCACCACTGCTCTAATCATTACCGGAGTCACCTAGTGCAG”, the binding signal was 3460 fluorescence intensity (a.u.).

As for “AGCAACTATGATGATATAATTACGCCCTTTGTTCTCCTTTCGGAGTCACCTAGTGCAG”, the binding signal was 4760 fluorescence intensity (a.u.).

With “CGAAATTTAATAAACATAAATACTGTGCACTAGATAAAGACGGAGTCACCTAGTGCAG”, the binding signal was 6960 fluorescence intensity (a.u.).

As for “GATTTAAACTACACTTAAATTAAATAATTCTATTAGTGGTCGGAGTCACCTAGTGCAG”, the binding signal was 11400 fluorescence intensity (a.u.).

Turning to “CTACAGTCTTCAATTAAGTTAGTCGCCGTTCCGCTGTATCCGGAGTCACCTAGTGCAG”, the binding signal is 6180 fluorescence intensity (a.u.).

“AATTACACTATAAATTTTAATAGATGTACTGCAATATTTGCGGAGTCACCTAGTGCAG”: the binding signal was 3330 fluorescence intensity (a.u.).

Turning to “ATTTGACAAAATGCAGTTATGATTTCTGAAGACGAGACATCGGAGTCACCTAGTGCAG”, the binding signal is 5050 fluorescence intensity (a.u.).

For the sequence “TATCTCCCTGATTAGAGTGTGGCAAGAATAAGGTTCAAATCGGAGTCACCTAGTGCAG”, the binding signal is 3180 fluorescence intensity (a.u.).

“CAAATAATTTATTCATTATCATATTACATGAGTTTAGAATCGGAGTCACCTAGTGCAG”: the binding signal is 22600 fluorescence intensity (a.u.).

On to “TTAAATTTATTGCATGATGTAACAACAACAATCGTACTAGCGGAGTCACCTAGTGCAG”, for which the binding signal is 37500 fluorescence intensity (a.u.).

With “GACCAATTTGATTTTCAGGTAAGCTCATAAGTTTATATGTCGGAGTCACCTAGTGCAG”, the binding signal was 3840 fluorescence intensity (a.u.).

Turning to “TGTTGATTAGTACATGATTAGTGAGTTGATTAGAATATGACGGAGTCACCTAGTGCAG”, the binding signal is 46800 fluorescence intensity (a.u.).

As for “TTTCGAAATGGCTCTAAATTGAAAGTGTTGCAGAAATTTTCGGAGTCACCTAGTGCAG”, the binding signal is 6630 fluorescence intensity (a.u.).

Turning to “CTTACTAATCAATCATAACCCTCTACCATTCCATTTCTTTCGGAGTCACCTAGTGCAG”, the binding signal is 15800 fluorescence intensity (a.u.).

Values taken from publication PMC7819943, “Rice protein-binding microarrays: a tool to detect cis-acting elements near promoter regions in rice”.
